Molecular target: the molecule itself
Experiment: SEC

B1: Wild-type PKA RIβ Dimerization/Docking (D/D) domain (domain or fragment)
chain: not shown
stoichiometry N: 2

Reference: doi:10.1101/2024.06.30.601371 (bioRxiv, 2024)
